From PMC4336329 (PLoS ONE, 2015) come the findings set out here.

About 14,000 (4.5%) of roughly 310,000 compounds showed an effect of 50% or more. Effects have a minus sign here. This is one part of the list.
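Further: peak tail current of the secondary pulse compared with the same well before compound.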

This test deals with human ether-à-go-go-related gene (hERG) potassium channel (human, UniProt Q12809). Nature of the test: primary screen, population patch clamp on CHO cells stably expressing hERG.
human ether-à-go-go-related gene (hERG) potassium channel, sequence (Q12809 whole entry, looked up): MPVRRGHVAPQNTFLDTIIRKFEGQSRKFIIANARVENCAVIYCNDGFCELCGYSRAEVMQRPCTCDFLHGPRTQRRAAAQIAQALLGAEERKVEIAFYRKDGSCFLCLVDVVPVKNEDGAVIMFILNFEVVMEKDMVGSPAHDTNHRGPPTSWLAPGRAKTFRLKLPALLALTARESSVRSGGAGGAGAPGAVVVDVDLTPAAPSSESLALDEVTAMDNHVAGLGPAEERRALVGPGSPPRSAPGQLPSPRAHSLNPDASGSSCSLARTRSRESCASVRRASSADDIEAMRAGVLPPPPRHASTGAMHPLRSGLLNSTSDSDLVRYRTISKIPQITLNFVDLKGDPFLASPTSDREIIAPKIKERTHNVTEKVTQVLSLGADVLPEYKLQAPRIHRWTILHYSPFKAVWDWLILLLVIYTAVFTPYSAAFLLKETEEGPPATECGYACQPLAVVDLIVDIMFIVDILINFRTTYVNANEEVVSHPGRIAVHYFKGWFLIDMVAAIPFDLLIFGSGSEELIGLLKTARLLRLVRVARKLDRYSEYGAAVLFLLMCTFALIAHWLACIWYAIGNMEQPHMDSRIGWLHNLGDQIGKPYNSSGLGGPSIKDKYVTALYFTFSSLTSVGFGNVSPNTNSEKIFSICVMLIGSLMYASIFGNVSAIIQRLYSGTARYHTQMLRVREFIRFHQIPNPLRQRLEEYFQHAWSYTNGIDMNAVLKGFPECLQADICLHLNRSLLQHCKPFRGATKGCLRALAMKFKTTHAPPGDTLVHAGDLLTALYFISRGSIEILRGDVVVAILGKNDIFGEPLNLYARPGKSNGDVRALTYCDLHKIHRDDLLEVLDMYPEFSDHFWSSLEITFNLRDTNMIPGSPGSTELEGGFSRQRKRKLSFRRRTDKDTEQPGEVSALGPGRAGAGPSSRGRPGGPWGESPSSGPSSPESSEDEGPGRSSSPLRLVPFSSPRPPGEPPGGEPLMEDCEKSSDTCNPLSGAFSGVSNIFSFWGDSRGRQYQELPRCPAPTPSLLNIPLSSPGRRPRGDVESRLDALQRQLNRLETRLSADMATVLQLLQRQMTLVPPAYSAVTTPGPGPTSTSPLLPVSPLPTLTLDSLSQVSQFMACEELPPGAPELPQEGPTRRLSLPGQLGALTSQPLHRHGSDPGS
Turning to `CCc1ccc(NC(=O)c2ccc(Cn3cc([N+](=O)[O-])cn3)cc2)cc1`, the “hERG current change (%, negative = inhibition) at 10uM” value is 8.86%.

Take `COc1ccc(S(=O)(=O)N(CC(=O)Nc2cccnc2)c2ccccc2OC)cc1`: the “hERG current change (%, negative = inhibition) at 10uM” value is listed as -9.68%.

`CN(Cc1ccccc1)S(=O)(=O)c1ccc(OCC(=O)Nc2cccc([N+](=O)[O-])c2)cc1`: the “hERG current change (%, negative = inhibition) at 10uM” value is reported as -9.01%.

For the compound `CCOC(=O)c1c(C)[nH]c(C)c1S(=O)(=O)N(C)Cc1ccco1`, the “hERG current change (%, negative = inhibition) at 10uM” value is recorded as 10%.

`COC(=O)c1cccc(NC(=O)NC23CC4CC(CC(C4)C2)C3)c1`: the “hERG current change (%, negative = inhibition) at 10uM” value worked out at 0.641%.

As for `Cc1noc2ncnc(Sc3ccc(Br)cc3)c12`, the “hERG current change (%, negative = inhibition) at 10uM” value is given as -50.8%.

For the compound `CCn1c(C)cc(=O)cc1-c1ccc(Cl)cc1`, the “hERG current change (%, negative = inhibition) at 10uM” value is 10.8%.

Take `CN(C(=O)NC(=O)C1=C(N2CCOCC2)/C(=C/c2ccccc2)CC1)S(C)(=O)=O`: the “hERG current change (%, negative = inhibition) at 10uM” value is -1.97%.

Take `CCOc1ccc(C2C(C#N)=C(N)Oc3cc(O)ccc32)cc1OCC` (centres unmarked): the “hERG current change (%, negative = inhibition) at 10uM” value was -5.59%.

Regarding `O=C(Nc1nccs1)c1ccc2nccnc2c1`, the “hERG current change (%, negative = inhibition) at 10uM” value worked out at 12.6%.

For `CN1C(=O)c2ccc(C(=O)Nc3nccs3)cc2C1=O`, the “hERG current change (%, negative = inhibition) at 10uM” value is listed as -20.7%.

Turning to `Cc1ccc(SCc2cc(=O)[nH]c(N3CCN(Cc4ccccc4)CC3)n2)cc1`, the “hERG current change (%, negative = inhibition) at 10uM” value stood at 5.84%.

Consider `COCCNC(=O)c1c(NC(=O)c2ccco2)n(Cc2ccccc2)c2nc3ccccc3nc12`, for which the “hERG current change (%, negative = inhibition) at 10uM” value is listed as -16.9%.

As to `COc1cc2sc3ccc(C#CC4(O)CCCCC4)cc3c(=O)c2cc1OC`, the “hERG current change (%, negative = inhibition) at 10uM” value is reported as 12.3%.

Regarding `O=C1NC(c2ccc(O)cc2)Nc2ccccc21` (centres unmarked), the “hERG current change (%, negative = inhibition) at 10uM” value turned out to be 0.853%.

As to `O=C(CN(c1ccc(F)cc1)S(=O)(=O)c1ccccc1)NC1CC2CCC1C2` (centres unmarked), the “hERG current change (%, negative = inhibition) at 10uM” value was determined as 19.5%.

Consider `Cc1nnc(SCc2nc3ccccc3nc2C)s1`, for which the “hERG current change (%, negative = inhibition) at 10uM” value was 7.14%.

With `Cc1ccc(-c2nnn(CC(=O)N(CCO)C(C(=O)NC3CCCC3)c3ccc(F)cc3)n2)o1` (centres unmarked), the “hERG current change (%, negative = inhibition) at 10uM” value was -1.1%.

As to `Cc1ccc(NC(=S)NC2CC3CCCC(C2)N3Cc2ccco2)cc1` (centres unmarked), the “hERG current change (%, negative = inhibition) at 10uM” value is -52.8%.

With `COc1cc(CNCc2cccs2)ccc1OCC(N)=O.Cl`, the “hERG current change (%, negative = inhibition) at 10uM” value is listed as -3.77%.

With `O=C(O)COc1ccc(Br)cc1CP(=O)(c1ccccc1)c1ccccc1`, the “hERG current change (%, negative = inhibition) at 10uM” value is recorded as -0.404%.

As for `COc1ccc(-c2cc(C(=O)OC3CCOC3=O)c3ccccc3n2)cc1` (centres unmarked), the “hERG current change (%, negative = inhibition) at 10uM” value is reported as 7.24%.

For the compound `O=C(Nc1nccs1)C1CCN(S(=O)(=O)c2ccc3c(c2)OCCCO3)CC1`, the “hERG current change (%, negative = inhibition) at 10uM” value is reported as -5.57%.

For `COc1nc(N(c2ccccc2)c2ccccc2)nc(-n2ccnc2)n1`, the “hERG current change (%, negative = inhibition) at 10uM” value is listed as -44.9%.

For the compound `COc1ccc(C(=O)NC(=S)N2CCOCC2)cc1[N+](=O)[O-]`, the “hERG current change (%, negative = inhibition) at 10uM” value is recorded as -3.56%.

`Cn1nc(C(=O)OCC(=O)NCCc2ccccc2)c2ccccc2c1=O`: the “hERG current change (%, negative = inhibition) at 10uM” value came out at 2.9%.

Turning to `COc1ccc(NC(=O)NNc2cc(N3CCOCC3)nc(N3CCOCC3)n2)cc1`, the “hERG current change (%, negative = inhibition) at 10uM” value was found to be 9.54%.

As to `Cc1c(Cl)cccc1NC(=O)CCS(=O)(=O)c1cccc2nonc12`, the “hERG current change (%, negative = inhibition) at 10uM” value is recorded as 12.8%.

Consider `O=C(CN1CCc2ccccc2C1)Nc1cc(S(=O)(=O)N2CCOCC2)ccc1N1CCCC1`, for which the “hERG current change (%, negative = inhibition) at 10uM” value is on record as 0.983%.

Consider `CCn1cc(S(=O)(=O)Nc2cccnc2)cn1`, for which the “hERG current change (%, negative = inhibition) at 10uM” value worked out at 13.5%.

Regarding `CC(=O)Oc1c(-c2ccco2)oc2ccccc2c1=O`, the “hERG current change (%, negative = inhibition) at 10uM” value is on record as -3.95%.

For the compound `Cc1cccc(NC(=S)N2CCN(c3cc(C)ccc3C)CC2)c1`, the “hERG current change (%, negative = inhibition) at 10uM” value worked out at 17.1%.

In the case of `O=C(CN1C(=O)c2ccccc2C1=O)Nc1cccnc1`, the “hERG current change (%, negative = inhibition) at 10uM” value was determined as 11.8%.

For `CC(C)(C)c1ccc(O)c(N=Cc2c(O)ccc3ccccc23)c1`, the “hERG current change (%, negative = inhibition) at 10uM” value was 5.91%.

As to `CS(=O)(=O)N(CC(=O)Nc1ccc2c(c1)OCCO2)Cc1ccccc1`, the “hERG current change (%, negative = inhibition) at 10uM” value is 13%.

Turning to `COc1ccccc1N(C)S(=O)(=O)c1ccc(Cl)c(C(=O)NC2=NCCS2)c1`, the “hERG current change (%, negative = inhibition) at 10uM” value stood at 31.6%.

In the case of `Cn1cccc1C(=O)N1CCc2ccccc2C1`, the “hERG current change (%, negative = inhibition) at 10uM” value came to 9.85%.

`CCCCOc1ccc(C2/C(=C(\O)c3ccc4c(c3)OCCO4)C(=O)C(=O)N2CCCN2CCOCC2)cc1` (centres unmarked): the “hERG current change (%, negative = inhibition) at 10uM” value was determined as 24.5%.

Consider `COc1cc(NC(=O)c2cc([N+](=O)[O-])ccc2NC(=O)CNCc2ccccn2)cc(OC)c1`, for which the “hERG current change (%, negative = inhibition) at 10uM” value is given as 3.3%.

As to `O=C(COC(=O)c1cnccn1)c1ccc2ccccc2c1`, the “hERG current change (%, negative = inhibition) at 10uM” value is recorded as 2.53%.

As to `CCOCC(=O)Nc1ccc2c(c1)OCCO2`, the “hERG current change (%, negative = inhibition) at 10uM” value came out at 19.6%.

Consider `CC(=O)N1CCc2cc(C(=O)CN3CCN(C(=O)c4ccco4)CC3)ccc21`, for which the “hERG current change (%, negative = inhibition) at 10uM” value came out at 6.01%.

For the compound `O=C(Cn1c(NCCO)nc2ccccc21)NCCc1ccc(F)cc1`, the “hERG current change (%, negative = inhibition) at 10uM” value came to 10.6%.

As for `Cc1ccc(C(C)C)c(OCc2ccc(C(=O)N/N=C/c3ccc(O)c(O)c3)cc2)c1`, the “hERG current change (%, negative = inhibition) at 10uM” value came out at 10.5%.

As to `Cc1cnc(NC(=O)c2ccc(Cl)nc2)s1`, the “hERG current change (%, negative = inhibition) at 10uM” value is given as 13.4%.

For `CC(C)OCCCNC(=O)c1ccc2c(=O)n(Cc3ccc4c(c3)OCO4)c(=S)[nH]c2c1`, the “hERG current change (%, negative = inhibition) at 10uM” value was 21.3%.

Take `CCS(=O)(=O)N1CCC(C(=O)NCc2ccco2)CC1`: the “hERG current change (%, negative = inhibition) at 10uM” value is listed as 3.42%.

In the case of `CC(C)C1Cc2c(sc3[nH]c(=S)n(Cc4ccccc4)c(=O)c23)CO1` (centres unmarked), the “hERG current change (%, negative = inhibition) at 10uM” value is 17.6%.

With `COc1ccc2c(CC(=O)NCC3CCC(C(=O)O)CC3)cc(=O)oc2c1` (centres unmarked), the “hERG current change (%, negative = inhibition) at 10uM” value is 6.04%.

For `O=C(O)CCn1cc(C=C2C(=O)NC(=S)NC2=O)c(-c2cccc(Br)c2)n1`, the “hERG current change (%, negative = inhibition) at 10uM” value worked out at 34.4%.

Consider `CSc1ccccc1OCc1cc(C(=O)N(C)Cc2ccc(C)o2)no1`, for which the “hERG current change (%, negative = inhibition) at 10uM” value is -11.9%.

In the case of `CCc1cc(=O)oc2cc(OCC(=O)OC)c(Cl)cc12`, the “hERG current change (%, negative = inhibition) at 10uM” value was -20.5%.

As to `CN(C)c1ccc(C(=O)Nc2cc(C(F)(F)F)ccc2-n2cncn2)cc1`, the “hERG current change (%, negative = inhibition) at 10uM” value is -4.97%.

For `CC(C)n1ncc2c(C(=O)N3CCN(Cc4ccc(Cl)s4)CC3)cc(C3CC3)nc21`, the “hERG current change (%, negative = inhibition) at 10uM” value is reported as -13.7%.

Turning to `CC(C)(C)NS(=O)(=O)c1ccc(CCC(=O)Nc2ccc3c(c2)OCO3)cc1`, the “hERG current change (%, negative = inhibition) at 10uM” value is on record as 1.25%.

In the case of `CCOC(=O)c1sc(=S)n(C)c1NC(=O)c1ccccc1`, the “hERG current change (%, negative = inhibition) at 10uM” value is 19.6%.
